Values marked as one replicate rest on one cluster of the flow cell; about a third of the high ones do not repeat.
The sequences below were run on ATP (assay: switch fluorescence ratio, 500 uM ATP over buffer (Cy3 cluster intensity, sum of 5 cycles each) (fold (ratio)); higher = stronger signal-on switching upon ATP binding; sequences stand for … in TCGTCGGCAGCGTCAGATGTGTATAAGAGACAGTTTTTTTTTTTTTTTTTTTTTTTTT…TC). Settings: aptamer strand: ATP DNA aptamer (quencher-CACCTGGGGGAGTATTGCGGAGGAAGG + anchor), 100 nM annealed; ATP concentration: 500 uM; one replicate.
Method in brief: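 The fluorescence ratio divides summed target-cycle Cy3 intensity by summed buffer-cycle Cy3 intensity for each cluster and is averaged per switch-domain sequence. Cy3-labelled switching-strand clusters on a modified Illumina MiSeq flow-cell were annealed to 100 nM quencher-labelled ATP aptamer, then imaged in selection buffer and again after 15 min with 500 uM ATP at 22 °C. Five such cycles were run, with NaOH stripping and re-annealing between them, and clusters outside 100-1000 RFU were excluded.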
TCACACCTTA gave a switch fluorescence ratio of 1.09. For TCACAGTGCA, the switch fluorescence ratio was 1.02. Sequence TCACATAACT has a switch fluorescence ratio of 1.14. For TCACATCTAT, the switch fluorescence ratio was 1.03. Sequence TCACCACTTC has a switch fluorescence ratio of 1.16. Work on TCACCAGGTC yielded a switch fluorescence ratio of 2.57. TCACCCATGT was tested, and the switch fluorescence ratio was 1.07. Sequence TCACCGACTT has a switch fluorescence ratio of 1.13. In the case of TCACCGCTGG, the switch fluorescence ratio is reported as 1.16. For TCACCTCAAA, the switch fluorescence ratio was 1.02. Sequence TCACGACCGA has a switch fluorescence ratio of 1.18. Sequence TCACGATTAA has a switch fluorescence ratio of 0.984. In the case of TCACGCTAAA, the switch fluorescence ratio is reported as 1.12. Sequence TCACGGGCGT has a switch fluorescence ratio of 0.988. Work on TCACGTAATT yielded a switch fluorescence ratio of 1.37. TCACGTAGCT showed a switch fluorescence ratio of 1.29. TCACTATAGT showed a switch fluorescence ratio of 1.07. In the case of TCACTATATA, the switch fluorescence ratio is reported as 1.05. For TCACTATGCG, the switch fluorescence ratio was 0.986. For TCACTCGACC, the switch fluorescence ratio was 1.08. TCACTTAGTG gave a switch fluorescence ratio of 0.998. TCACTTCTGG was tested, and the switch fluorescence ratio was 0.984. TCAGAAAGAG was tested, and the switch fluorescence ratio was 1.05. Sequence TCAGAACAGC has a switch fluorescence ratio of 0.991. Work on TCAGAACTAG yielded a switch fluorescence ratio of 0.998. For TCAGACTGGG, the switch fluorescence ratio was 1.02. In the case of TCAGAGCTTT, the switch fluorescence ratio is reported as 0.979. TCAGAGGCGA showed a switch fluorescence ratio of 1.26. For TCAGAGTCCT, the switch fluorescence ratio was 0.991. Work on TCAGATCGGG yielded a switch fluorescence ratio of 1.04. TCAGATGAGC gave a switch fluorescence ratio of 1.05. In the case of TCAGATTGAG, the switch fluorescence ratio is reported as 0.994. TCAGATTGCT showed a switch fluorescence ratio of 0.995. TCAGCCATA gave a switch fluorescence ratio of 1.03. TCAGCCCGGT gave a switch fluorescence ratio of 1.06. With TCAGCGAGGC the switch fluorescence ratio was 1.36. Work on TCAGCTAGAG yielded a switch fluorescence ratio of 1. Sequence TCAGGACATG has a switch fluorescence ratio of 0.944. With TCAGGAGAC the switch fluorescence ratio was 1.1. With TCAGGAGCGA the switch fluorescence ratio was 1.15. TCAGGAGGTA was tested, and the switch fluorescence ratio was 1. With TCAGGCAATT the switch fluorescence ratio was 1.29. In the case of TCAGGCATGG, the switch fluorescence ratio is reported as 0.954. TCAGGGAATC gave a switch fluorescence ratio of 1.07. For TCAGGGTA, the switch fluorescence ratio was 0.964. In the case of TCAGGTTGCC, the switch fluorescence ratio is reported as 1.04. TCAGTAAATA gave a switch fluorescence ratio of 0.973. Work on TCAGTACGGA yielded a switch fluorescence ratio of 1.03. For TCAGTATAAG, the switch fluorescence ratio was 0.958. With TCAGTATGAT the switch fluorescence ratio was 1.03. TCAGTCACAA showed a switch fluorescence ratio of 0.997. With TCAGTCGTTT the switch fluorescence ratio was 1.06. With TCAGTGCACA the switch fluorescence ratio was 0.998. TCAGTTGCCA gave a switch fluorescence ratio of 0.99. TCAGTTGTGT was tested, and the switch fluorescence ratio was 0.985. With TCATAAAGTA the switch fluorescence ratio was 1.01. TCATAAGTCT showed a switch fluorescence ratio of 0.998. With TCATAATCCC the switch fluorescence ratio was 1.03. In the case of TCATAATCCT, the switch fluorescence ratio is reported as 1.04. For TCATACGCGC, the switch fluorescence ratio was 2.08. For TCATACGTGT, the switch fluorescence ratio was 1.04. Sequence TCATACTAGT has a switch fluorescence ratio of 1.01. TCATAGAGCG was tested, and the switch fluorescence ratio was 0.996. For TCATAGATAG, the switch fluorescence ratio was 1.01. Work on TCATAGCATC yielded a switch fluorescence ratio of 1.48. Work on TCATATACCG yielded a switch fluorescence ratio of 0.959. With TCATATGCGT the switch fluorescence ratio was 0.982. For TCATCAAATG, the switch fluorescence ratio was 1.06. Sequence TCATCAAGCT has a switch fluorescence ratio of 1.03. Sequence TCATCAGAAT has a switch fluorescence ratio of 1.05. TCATCAGAGA gave a switch fluorescence ratio of 0.993. TCATCATCAT showed a switch fluorescence ratio of 1. TCATCCAGGT gave a switch fluorescence ratio of 2. TCATCGTGCA was tested, and the switch fluorescence ratio was 1.1. In the case of TCATCTCAAT, the switch fluorescence ratio is reported as 1.24. In the case of TCATGAGAAT, the switch fluorescence ratio is reported as 0.986. TCATGAGTCG was tested, and the switch fluorescence ratio was 1. TCATGCCCCG showed a switch fluorescence ratio of 1.02. With TCATGCCGAA the switch fluorescence ratio was 0.978. For TCATGGCTGC, the switch fluorescence ratio was 1.02. With TCATGTTGGG the switch fluorescence ratio was 1.03. In the case of TCATTCGCG, the switch fluorescence ratio is reported as 1. TCATTCGTAG showed a switch fluorescence ratio of 1.03. With TCATTGCG the switch fluorescence ratio was 1. Sequence TCATTGCGAC has a switch fluorescence ratio of 1.08. TCATTGCGGT showed a switch fluorescence ratio of 1. With TCATTGGTCA the switch fluorescence ratio was 0.988. Work on TCATTGTGAT yielded a switch fluorescence ratio of 0.993. For TCATTTAAAT, the switch fluorescence ratio was 0.981. TCATTTAATT was tested, and the switch fluorescence ratio was 1.01. TCCAACCGAC was tested, and the switch fluorescence ratio was 2.39. With TCCAAGTAGC the switch fluorescence ratio was 1.07. Work on TCCAATATGT yielded a switch fluorescence ratio of 0.999. In the case of TCCAATGAGT, the switch fluorescence ratio is reported as 0.998. Sequence TCCAATTTAC has a switch fluorescence ratio of 1.56. TCCACAATAT gave a switch fluorescence ratio of 5.34. Sequence TCCACGCATA has a switch fluorescence ratio of 5.13. Work on TCCACTTTAG yielded a switch fluorescence ratio of 1.03. TCCAGAGCAA was tested, and the switch fluorescence ratio was 0.97. Work on TCCAGCGAAG yielded a switch fluorescence ratio of 1.07. Sequence TCCAGCTCCC has a switch fluorescence ratio of 1.33. In the case of TCCAGGAAAA, the switch fluorescence ratio is reported as 0.984. With TCCAGTAGAC the switch fluorescence ratio was 1.22. In the case of TCCAGTTTGG, the switch fluorescence ratio is reported as 0.983. For TCCATAGATC, the switch fluorescence ratio was 0.989. With TCCATCACGC the switch fluorescence ratio was 1.28. Sequence TCCATCTCAA has a switch fluorescence ratio of 0.991. TCCATGCTTG showed a switch fluorescence ratio of 1.01. TCCATGGGGG gave a switch fluorescence ratio of 1.02. In the case of TCCATTCCTG, the switch fluorescence ratio is reported as 1.03. For TCCATTGTT, the switch fluorescence ratio was 0.977. Work on TCCATTTCCC yielded a switch fluorescence ratio of 0.979. Sequence TCCCAAGGGA has a switch fluorescence ratio of 1.46. For TCCCACGCGC, the switch fluorescence ratio was 3.88. Work on TCCCACTTTC yielded a switch fluorescence ratio of 1.12. TCCCAGAAA gave a switch fluorescence ratio of 1.03. With TCCCAGAAAC the switch fluorescence ratio was 1.1. TCCCAGACAC showed a switch fluorescence ratio of 1.14. TCCCAGCAGC gave a switch fluorescence ratio of 3.21. Sequence TCCCAGCCCA has a switch fluorescence ratio of 0.978. TCCCAGTTGG gave a switch fluorescence ratio of 1.11. Sequence TCCCCAACGA has a switch fluorescence ratio of 1.04. With TCCCCACCTA the switch fluorescence ratio was 0.979. Sequence TCCCCACTTC has a switch fluorescence ratio of 1.06. With TCCCCATCTT the switch fluorescence ratio was 1.1. For TCCCCCCCAC, the switch fluorescence ratio was 1.58. In the case of TCCCCGCC, the switch fluorescence ratio is reported as 1.14. TCCCGATGGC was tested, and the switch fluorescence ratio was 1.09. For TCCCGGCGTC, the switch fluorescence ratio was 1.08. With TCCCGGTGTC the switch fluorescence ratio was 1.41. TCCCGTATCG was tested, and the switch fluorescence ratio was 0.987. TCCCTCCGGG gave a switch fluorescence ratio of 1.04. TCCCTGGCTA gave a switch fluorescence ratio of 1.02. Sequence TCCCTTTTTA has a switch fluorescence ratio of 1.14. TCCGAAATG was tested, and the switch fluorescence ratio was 1.02. TCCGAGATGT showed a switch fluorescence ratio of 1.08. TCCGATTACA gave a switch fluorescence ratio of 0.982. TCCGCCAACT gave a switch fluorescence ratio of 2.63. With TCCGCCCGAA the switch fluorescence ratio was 1.54. Sequence TCCGCGCGCG has a switch fluorescence ratio of 1.02. Work on TCCGCGTTG yielded a switch fluorescence ratio of 1.19. Work on TCCGCTCGGA yielded a switch fluorescence ratio of 0.991. In the case of TCCGCTTCGG, the switch fluorescence ratio is reported as 1.02. TCCGGAAGAT was tested, and the switch fluorescence ratio was 1.01. In the case of TCCGGCAGTA, the switch fluorescence ratio is reported as 1.46. TCCGGCTCCC showed a switch fluorescence ratio of 2.01. Sequence TCCGGGATAC has a switch fluorescence ratio of 4.01. TCCGGGTGTC showed a switch fluorescence ratio of 1.4. Sequence TCCGTCAGCT has a switch fluorescence ratio of 1.02. With TCCGTGGCGG the switch fluorescence ratio was 1.04. Sequence TCCGTGGGGT has a switch fluorescence ratio of 0.978. TCCGTGGTCG showed a switch fluorescence ratio of 0.938. TCCGTTGTAG gave a switch fluorescence ratio of 1.22. TCCGTTGTCT was tested, and the switch fluorescence ratio was 1.06. For TCCGTTTAGT, the switch fluorescence ratio was 1.02. TCCTACAAAA gave a switch fluorescence ratio of 1.97. With TCCTACGATG the switch fluorescence ratio was 1.97. Work on TCCTAGGGT yielded a switch fluorescence ratio of 0.967. TCCTATAAGC gave a switch fluorescence ratio of 1.08. TCCTATCCG gave a switch fluorescence ratio of 1.09. TCCTATTCTG gave a switch fluorescence ratio of 1.03. For TCCTCACGCT, the switch fluorescence ratio was 5.06. With TCCTCAGCGC the switch fluorescence ratio was 4.07. Work on TCCTCGTTCC yielded a switch fluorescence ratio of 1.07. With TCCTCTCCCG the switch fluorescence ratio was 1.25. Sequence TCCTCTTGCG has a switch fluorescence ratio of 1.34. In the case of TCCTGAAGTT, the switch fluorescence ratio is reported as 1.1. In the case of TCCTGGGGTG, the switch fluorescence ratio is reported as 1.53. With TCCTGGTGTA the switch fluorescence ratio was 1.19. TCCTGGTTAT showed a switch fluorescence ratio of 1.02. TCCTGTCACG showed a switch fluorescence ratio of 1.06. With TCCTGTCCGG the switch fluorescence ratio was 1.02. TCCTGTGGTA showed a switch fluorescence ratio of 1. Sequence TCCTTACGTC has a switch fluorescence ratio of 1.12. TCCTTATGTC was tested, and the switch fluorescence ratio was 1.03. With TCCTTCAGAC the switch fluorescence ratio was 1.55. In the case of TCCTTCATGT, the switch fluorescence ratio is reported as 0.985. TCCTTCTCCT gave a switch fluorescence ratio of 1.19. Work on TCCTTGGATT yielded a switch fluorescence ratio of 0.978. TCCTTTGTA showed a switch fluorescence ratio of 1.08. Work on TCGAAAAGAG yielded a switch fluorescence ratio of 1.01. TCGAAACCAT showed a switch fluorescence ratio of 1.05. TCGAAATGGC gave a switch fluorescence ratio of 1.14. In the case of TCGAACCATC, the switch fluorescence ratio is reported as 1.01. In the case of TCGAACCCCC, the switch fluorescence ratio is reported as 1.01. TCGAAGTGCA showed a switch fluorescence ratio of 0.957. In the case of TCGAAGTTGG, the switch fluorescence ratio is reported as 1. In the case of TCGAATGGG, the switch fluorescence ratio is reported as 1. TCGAATGTAA gave a switch fluorescence ratio of 1.04. TCGACAGTGT gave a switch fluorescence ratio of 0.967. Sequence TCGACCGTAA has a switch fluorescence ratio of 2.27. With TCGACGGTTA the switch fluorescence ratio was 1.18. TCGACTTATA gave a switch fluorescence ratio of 1.04. Sequence TCGAGACGGG has a switch fluorescence ratio of 0.995. In the case of TCGAGATGAG, the switch fluorescence ratio is reported as 0.947. TCGAGCGCTG showed a switch fluorescence ratio of 1.04. TCGAGCGTA was tested, and the switch fluorescence ratio was 1.01. For TCGAGGCTTT, the switch fluorescence ratio was 1.16. Sequence TCGAGTAAAT has a switch fluorescence ratio of 2.1. With TCGAGTCTCT the switch fluorescence ratio was 0.998.

— the supplement of paper PMC10126150
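Further: ATP exposure 15 min at 22 °C before imaging.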
